Measurements from US9572878B2, “Method of combination therapy using an EGFR antagonist and anti-c-Met antibody” (SAMSUNG ELECTRONICS CO., LTD., priority 2013, dated 2017).

Tested on: HCC827 ER #15
Test: Combined use of erlotinib and antibodies in erlotinib resistant cell line, cell number by CCK-8
Type: cell-based, human
Settings: 5 days
Experimental: In a 96 well plate, diluted HCC827 ER #15 was seeded at 5000 cells/well in a […] medium (GIBCO) containing 10% FBS, and then, incubated at 37° C. overnight. On the next day, the medium was replaced with a RPMI1640 medium containing 1% FBS (GIBCO), and then, the antibody was serially diluted from 100 ug/ml, and the cells were treated therewith at 100 ul. For co-administration, the cells were treated with 10 nM or 100 nM erlotinib, together with the antibody. After 5 days, the number of cells was measured using a CCK-8 reagent (Dojindo laboratory).

B1: VIG2: bispecific antibody: anti-c-Met antibody coupled via (G4S)2 linker to VEGF receptor 1 Ig2 domain (SEQ ID NO: 114) (antibody)
heavy: EVQLVESGGGLVQPGGSLRLSCAASGFTFTDYYMSWVRQAPGKGLEWLGFIRNKANGYTTEYSASVKGRFTISRDNSKNTLYLQMNSLRAEDTAVYYCARDNWFAYWGQGTLVTVSSASTKGPSVFPLAPSSKSTSGGTAALGCLVKDYFPEPVTVSWNSGALTSGVHTFPAVLQSSGLYSLSSVVTVPSSSLGTQTYICNVNHKPSNTKVDKKVEPKSCDCH[not shown - human IgG1 Fc]GGGGSGGGGSSDTGRPFVEMYSEIPEIIHMTEGRELVIPCRVTSPNITVTLKKFPLDTLIPDGKRIIWDSRKGFIISNATYKEIGLLTCEATVNGHLYKTNYLTHRQTNTI
light: DIQMTQSPSSLSASVGDRVTITCKSSQSLLASGNQNNYLAWYQQKPGKAPKMLIIWASTRVSGVPSRFSGSGSGTDFTLTISSLQPEDFATYYCQQSYSRPYTFGQGTKVEIKRTVAAPSVFIFPPSDEQLKSGTASVVCLLNNFYPREAKVQWKVDNALQSGNSQESVTEQDSKDSTYSLSSTLTLSKADYEKHKVYACEVTHQGLSSPVTKSFNRGEC
Antibody dilution series with 10 nM or 100 nM erlotinib, FIGS. 4a-4d
  synergistic effect of co-administration with erlotinib: excellent synergistic effect
Antibody serially diluted from 100 ug/ml with 10 nM or 100 nM erlotinib, compared to single administration, FIGS. 4a-4c
  growth of cell line on co-administration with erlotinib: effectively inhibited even at a very low concentration
